# From the supplement of paper PMC8728848
# The other results are listed elsewhere or left out.
# B1: rCnSL-proA (Clitocybe nebularis) (protein)
# chain: AAFFSLVVLLALLPFGIHASALPSTELTPRVNPNLPGPNDVFVGFRGTNNIVGAIYEKDGIKDTPLNNGADAEMGPGSYITDGLFTARIFASGSAGNNPGTTATVCKIYASGVQWRGAPKGYIPVAYFGNGPTAEQRRQTYLRTLGLPGTAIRFGNLNTNPGQGPTAPRQMVVPPGPLRSLLKASCFPAADTRLPQTLHYFEKRVDWNIITAADSQTWGH
# Tests used:
# Experiment in all cases: glycan array binding signal (z-score within array); higher = stronger binding
# Settings in all cases: glycan notation: IUPAC condensed, linker removed
# [1] = molecular target: GalNAc(b1-4)GlcNAc(b1-2)Man
# In short: (§1)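 Columns mapping to the same glycan were averaged after glycan names were converted to IUPAC-condensed notation. The data come from 3228 arrays in the Consortium for Functional Glycomics database, limited to those with an available protein sequence. Binding is reported as a within-array Z-score averaged across arrays of one protein sequence and across linkers.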
# [2] = molecular target: GalNAc(b1-4)GlcNAc(b1-2)Man(a1-3)[GalNAc(b1-4)GlcNAc(b1-2)Man(a1-6)]Man(b1-4)GlcNAc(b1-4)GlcNAc
# In short: as §1
# [3] = molecular target: GalNAc(b1-4)GlcNAc(b1-3)GalNAc(b1-4)GlcNAc
# In short: as §1
# GalNAc(b1-4)GlcNAc6S = molecular target: GalNAc(b1-4)GlcNAc6S
# In short: as §1
# GalNAc(b1-6)GalNAc = molecular target: GalNAc(b1-6)GalNAc
# In short: as §1
# GalNAc3S(b1-4)GlcNAc = molecular target: GalNAc3S(b1-4)GlcNAc
# In short: as §1
# GalNAc3S(b1-4)GlcNAc3S = molecular target: GalNAc3S(b1-4)GlcNAc3S
# In short: as §1
# [4] = molecular target: GalNAc3S(b1-4)[Fuc(a1-3)]GlcNAc
# In short: as §1
# GalNAc4S6S(b1-4)GlcNAc = molecular target: GalNAc4S6S(b1-4)GlcNAc
# In short: as §1
# GalNAc6S(b1-4)GlcNAc = molecular target: GalNAc6S(b1-4)GlcNAc
# In short: as §1
# Glc(a1-4)Glc = molecular target: Glc(a1-4)Glc
# In short: as §1
# [5] = molecular target: Glc(a1-4)Glc(a1-4)Glc(a1-4)Glc
# In short: as §1
# Glc(a1-6)Glc(a1-6)Glc = molecular target: Glc(a1-6)Glc(a1-6)Glc
# In short: as §1
# [6] = molecular target: Glc(a1-6)Glc(a1-6)Glc(a1-6)Glc
# In short: as §1
# Glc(b1-4)Glc = molecular target: Glc(b1-4)Glc
# In short: as §1
# Glc(b1-6)Glc = molecular target: Glc(b1-6)Glc
# In short: as §1
# GlcA(b1-3)Gal = molecular target: GlcA(b1-3)Gal
# In short: as §1
# GlcA(b1-3)GlcNAc = molecular target: GlcA(b1-3)GlcNAc
# In short: as §1
# GlcA(b1-6)Gal = molecular target: GlcA(b1-6)Gal
# In short: as §1
# [7] = molecular target: GlcA3S(b1-3)Gal(b1-4)GlcNAc(b1-2)Man
# In short: as §1
# [8] = molecular target: GlcA3S(b1-3)Gal(b1-4)GlcNAc(b1-3)Gal(b1-4)Glc
# In short: as §1
# [9] = molecular target: GlcNAc(a1-3)Gal(b1-4)GlcNAc
# In short: as §1
# [10] = molecular target: GlcNAc(a1-4)Gal(b1-3)GlcNAc
# In short: as §1
# [11] = molecular target: GlcNAc(a1-4)Gal(b1-4)GalNAc
# In short: as §1
# [12] = molecular target: GlcNAc(a1-4)Gal(b1-4)GlcNAc
# In short: as §1
# [13] = molecular target: GlcNAc(a1-4)Gal(b1-4)GlcNAc(b1-3)Gal(b1-4)Glc
# In short: as §1
# [14] = molecular target: GlcNAc(a1-4)Gal(b1-4)GlcNAc(b1-3)Gal(b1-4)GlcNAc
# In short: as §1
# [15] = molecular target: GlcNAc(a1-4)Gal(b1-4)GlcNAc(b1-3)Gal(b1-4)GlcNAc(b1-3)Gal(b1-4)GlcNAc
# In short: as §1
# [16] = molecular target: GlcNAc(a1-4)Gal(b1-4)GlcNAc(b1-3)Gal(b1-4)[Fuc(a1-3)]GlcNAc(b1-3)Gal(b1-4)[Fuc(a1-3)]GlcNAc
# In short: as §1
# [17] = molecular target: GlcNAc(a1-6)Gal(b1-4)GlcNAc
# In short: as §1
# [18] = molecular target: GlcNAc(b1-2)Gal(b1-3)GalNAc
# In short: as §1
# [19] = molecular target: GlcNAc(b1-2)Man(a1-3)[GlcNAc(b1-2)Man(a1-6)]Man(b1-4)GlcNAc(b1-4)GlcNAc
# In short: as §1
# [20] = molecular target: GlcNAc(b1-2)Man(a1-3)[GlcNAc(b1-2)Man(a1-6)]Man(b1-4)GlcNAc(b1-4)[Fuc(a1-6)]GlcNAc
# In short: as §1
# [21] = molecular target: GlcNAc(b1-2)Man(a1-3)[GlcNAc(b1-4)][GlcNAc(b1-2)Man(a1-6)]Man(b1-4)GlcNAc(b1-4)GlcNAc
# In short: as §1
# [22] = molecular target: GlcNAc(b1-2)Man(a1-3)[GlcNAc(b1-4)][GlcNAc(b1-2)Man(a1-6)]Man(b1-4)GlcNAc(b1-4)[Fuc(a1-6)]GlcNAc
# In short: as §1
# [23] = molecular target: GlcNAc(b1-2)[GlcNAc(b1-4)]Man(a1-3)[GlcNAc(b1-2)Man(a1-6)]Man(b1-4)GlcNAc(b1-4)GlcNAc
# In short: as §1
# [24] = molecular target: GlcNAc(b1-2)[GlcNAc(b1-4)]Man(a1-3)[GlcNAc(b1-4)][GlcNAc(b1-2)Man(a1-6)]Man(b1-4)GlcNAc(b1-4)GlcNAc
# In short: as §1
# [25] = molecular target: GlcNAc(b1-2)[GlcNAc(b1-4)]Man(a1-3)[GlcNAc(b1-4)][GlcNAc(b1-2)[GlcNAc(b1-6)]Man(a1-6)]Man(b1-4)GlcNAc(b1-4)GlcNAc
# In short: as §1
# [26] = molecular target: GlcNAc(b1-2)[GlcNAc(b1-4)]Man(a1-3)[GlcNAc(b1-4)][GlcNAc(b1-2)[GlcNAc(b1-6)]Man(a1-6)]Man(b1-4)GlcNAc(b1-4)[Fuc(a1-6)]GlcNAc
# In short: as §1
# [27] = molecular target: GlcNAc(b1-2)[GlcNAc(b1-6)]Man(a1-6)[GlcNAc(b1-2)Man(a1-3)]Man(b1-4)GlcNAc(b1-4)GlcNAc
# In short: as §1
# [28] = molecular target: GlcNAc(b1-2)[GlcNAc(b1-6)]Man(a1-6)[GlcNAc(b1-2)Man(a1-3)]Man(b1-4)GlcNAc(b1-4)[Fuc(a1-6)]GlcNAc
# In short: as §1
# [29] = molecular target: GlcNAc(b1-2)[GlcNAc(b1-6)]Man(a1-6)[GlcNAc(b1-4)][GlcNAc(b1-2)Man(a1-3)]Man(b1-4)GlcNAc(b1-4)GlcNAc
# In short: as §1
# GlcNAc(b1-3)Fuc = molecular target: GlcNAc(b1-3)Fuc
# In short: as §1
# GlcNAc(b1-3)Gal = molecular target: GlcNAc(b1-3)Gal
# In short: as §1
# [30] = molecular target: GlcNAc(b1-3)Gal(b1-3)GalNAc
# In short: as §1
binder,measurement,setting,value
B1,glycan array binding signal (z-score),[1],0.038
same,glycan array binding signal (z-score),[2],3.42
same,glycan array binding signal (z-score),[3],-0.063
same,glycan array binding signal (z-score),GalNAc(b1-4)GlcNAc6S,-0.073
same,glycan array binding signal (z-score),GalNAc(b1-6)GalNAc,-0.268
same,glycan array binding signal (z-score),GalNAc3S(b1-4)GlcNAc,-0.34
same,glycan array binding signal (z-score),GalNAc3S(b1-4)GlcNAc3S,-0.693
same,glycan array binding signal (z-score),[4],-0.664
same,glycan array binding signal (z-score),GalNAc4S6S(b1-4)GlcNAc,-0.579
same,glycan array binding signal (z-score),GalNAc6S(b1-4)GlcNAc,-0.26
same,glycan array binding signal (z-score),Glc(a1-4)Glc,0.03
same,glycan array binding signal (z-score),[5],0.086
same,glycan array binding signal (z-score),Glc(a1-6)Glc(a1-6)Glc,0.061
same,glycan array binding signal (z-score),[6],-0.23
same,glycan array binding signal (z-score),Glc(b1-4)Glc,0.068
same,glycan array binding signal (z-score),Glc(b1-6)Glc,-0.146
same,glycan array binding signal (z-score),GlcA(b1-3)Gal,-0.93
same,glycan array binding signal (z-score),GlcA(b1-3)GlcNAc,0.021
same,glycan array binding signal (z-score),GlcA(b1-6)Gal,1.19
same,glycan array binding signal (z-score),[7],-0.614
same,glycan array binding signal (z-score),[8],-0.793
same,glycan array binding signal (z-score),[9],-0.305
same,glycan array binding signal (z-score),[10],-0.192
same,glycan array binding signal (z-score),[11],-0.786
same,glycan array binding signal (z-score),[12],-0.729
same,glycan array binding signal (z-score),[13],-1.11
same,glycan array binding signal (z-score),[14],-0.381
same,glycan array binding signal (z-score),[15],-0.522
same,glycan array binding signal (z-score),[16],0.091
same,glycan array binding signal (z-score),[17],0.294
same,glycan array binding signal (z-score),[18],-0.604
same,glycan array binding signal (z-score),[19],-0.374
same,glycan array binding signal (z-score),[20],1.31
same,glycan array binding signal (z-score),[21],-0.318
same,glycan array binding signal (z-score),[22],-0.164
same,glycan array binding signal (z-score),[23],0.032
same,glycan array binding signal (z-score),[24],-0.276
same,glycan array binding signal (z-score),[25],-0.196
same,glycan array binding signal (z-score),[26],-0.642
same,glycan array binding signal (z-score),[27],-0.227
same,glycan array binding signal (z-score),[28],1.35
same,glycan array binding signal (z-score),[29],-0.426
same,glycan array binding signal (z-score),GlcNAc(b1-3)Fuc,-0.005
same,glycan array binding signal (z-score),GlcNAc(b1-3)Gal,-0.618
same,glycan array binding signal (z-score),[30],-0.117
